Laboratory results from PubChem BioAssay AID686978 (National Center for Advancing Translational Sciences (NCATS), 2013).
Out of some 420,000 compounds screened, about 64,000 (15%) were called active. Inconclusive results, whose numbers are uncertain, are shown with a selection of clear calls. Calls come from the whole dose curve; as a rule, active = well fitted inhibition curve with a large enough effect; inconclusive = small, poorly fitted or top-dose-only effect; inactive = flat fitted curve, though single readings scatter. Potencies of inconclusive entries are left out as doubtful fits.

assay: qHTS for Inhibitors of human tyrosyl-DNA phosphodiesterase 1 (TDP1): qHTS in cells in absence of CPT; settings: DT40 Tdp1-/- hTDP1 cells, no CPT, ATP luminescence, 48 h; activity change, negative = growth inhibition: at 46.2 µM (top of the series) unless noted; note: nearly all actives have a fitted effect of over 55% in size
Method in brief: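 A cellular qHTS used chicken DT40 cells lacking endogenous Tdp1 but carrying stably transfected human TDP1. Compounds were applied without camptothecin, and cell growth kinetics were judged by ATP-dependent luminescence after ≥48 hr.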
% is set by controls: 0 for no effect and ±100 for the full control effect; potency is the fitted concentration of half-maximal effect; tags give direction and shape of the fitted curve.

SMILES	Potency	activity change, negative = growth inhibition
CCOc1ccc(CN(C)C(=O)CCc2ccc(S(=O)(=O)N3CCCCCC3)cc2)cc1	inactive	
O=C(N/N=C/c1cccnc1)c1cc2c(ccc3ccccc32)o1	inconclusive [inhibitor, full curve, poor fit]	
O=C(COc1ccccc1[N+](=O)[O-])NCCC1=CCCCC1	inconclusive [inhibitor, partial curve, poor fit]	
CC(C)(C)N(Cc1ccccc1)C(=O)c1ccc2c(c1)OCCO2	inconclusive [inhibitor, partial curve]	
C[C@]12CCC(=O)CC1CCC1C2CC[C@@]2(C)C1CC[C@@]21CCO1 (stereo partly drawn)	active: 20.6 µM	
CC(=O)Nc1ccc(OCC(=O)c2ccc(C)cc2C)cc1		inconclusive: -37.4% [inhibitor]
c1ccc(C2c3c(ccc4ccccc34)Oc3ncn4nc(-c5ccco5)nc4c32)cc1 (stereo not drawn)	inconclusive [inhibitor, single point]	
O=C(C1CC(=O)N(C2CCCCC2)C1)N1CCN(c2cccc(C(F)(F)F)c2)CC1 (stereo not drawn)	inconclusive [inhibitor, single point]	
Cc1c(C)c2c(OCC(=O)NCc3ccncc3)cc3c(c2oc1=O)CCC(C)(C)O3	inconclusive [inhibitor, partial curve]	
COc1ccccc1OCc1nc(C#N)c(N2CC(C)CC(C)C2)o1 (stereo not drawn)	inconclusive [inhibitor, single point]	
COc1ccc(C(=O)NCC(c2cccnc2)N2CCc3ccccc32)cc1OC (stereo not drawn)	active: 20.6 µM	
Cc1nnc(N2CCOCC2)c2nn(-c3cccc(Cl)c3)c(C)c12	inconclusive [inhibitor, single point]	
Cc1ccccc1N/C=C/C(=C(C#N)C#N)N(C)C	inactive	
CCC1C(=O)NCCN1Cc1ccc2c(c1)CN(Cc1cc(OC)c3c(c1)OCO3)CCO2 (stereo not drawn)	inconclusive [inhibitor, single point]	
CCC1CCCCN1S(=O)(=O)c1ccc(C(=O)Nc2nnc(C3CC3)o2)cc1 (stereo not drawn)	inconclusive [inhibitor, single point]	
Cc1c(C(c2ccc(Br)cc2)c2c(C)n(C)n(-c3ccccc3)c2=O)c(=O)n(-c2ccccc2)n1C		inconclusive: -31.5% [inhibitor]
NC(=O)CC(NC(=O)c1ccc(Br)cc1)c1ccc(N2CCC(Br)CC2)c([N+](=O)[O-])c1 (stereo not drawn)	active: 11.6 µM	
Cc1cccc2nc(-c3cccnc3)c(Nc3ccccc3)n12	inconclusive [inhibitor, single point]	
